PubChem BioAssay (NCI)
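Test compounds were applied to cells in 96-well plates for 48 hours at 5 doses. Definition used: TGI = concentration required for complete inhibition of growth.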 The source holds more than one record for some entries. This list holds those alone. An entry can have further records. Records of one sample usually come from different ranges of test concentrations, not given here; a value can be the end of its range.

System: MDA-MB-468 breast
Test: NCI-60 cell line screen, 48 h

COc1cc(C(=O)/C(C)=C/c2c[nH]c3ccccc23)cc(OC)c1OC
TGI: 84 nM and > 100 µM

CC(=O)N[C@H]1C=C[C@@H]2/C=C(C)/C=C/[C@@H](C)[C@H]([C@H](C)[C@H](O)[C@@H](C)NC(C)=O)OC(=O)/C=C/C=C(C)\C=C\[C@]2(C)C1
TGI: 13.7 nM and 1.44 µM
